Here are results for 33 compounds from PubChem BioAssay AID488969 (Vanderbilt High Throughput Screening Facility, 2010).

In all, about 110,000 compounds were measured (“z-score”: median about -0.1, highest 2% from about 2 on). This is one part of the list.

The target of this experiment is Metabotropic glutamate receptor 8 (Rattus norvegicus) (UniProt P70579). In words: rat mGluR8 modulators via GIRK flux, primary screen, cell-based, thallium flux, HTS (AID 488969). The following applies: HEK293 rat mGluR8, GIRK (G protein-gated inwardly rectifying potassium channel) thallium flux, FluoZin2; at 10 µM; stronger effect = higher value; submaximal glutamate (EC20) added with thallium.
UniProt P70579, sequence (P70579 whole entry, looked up): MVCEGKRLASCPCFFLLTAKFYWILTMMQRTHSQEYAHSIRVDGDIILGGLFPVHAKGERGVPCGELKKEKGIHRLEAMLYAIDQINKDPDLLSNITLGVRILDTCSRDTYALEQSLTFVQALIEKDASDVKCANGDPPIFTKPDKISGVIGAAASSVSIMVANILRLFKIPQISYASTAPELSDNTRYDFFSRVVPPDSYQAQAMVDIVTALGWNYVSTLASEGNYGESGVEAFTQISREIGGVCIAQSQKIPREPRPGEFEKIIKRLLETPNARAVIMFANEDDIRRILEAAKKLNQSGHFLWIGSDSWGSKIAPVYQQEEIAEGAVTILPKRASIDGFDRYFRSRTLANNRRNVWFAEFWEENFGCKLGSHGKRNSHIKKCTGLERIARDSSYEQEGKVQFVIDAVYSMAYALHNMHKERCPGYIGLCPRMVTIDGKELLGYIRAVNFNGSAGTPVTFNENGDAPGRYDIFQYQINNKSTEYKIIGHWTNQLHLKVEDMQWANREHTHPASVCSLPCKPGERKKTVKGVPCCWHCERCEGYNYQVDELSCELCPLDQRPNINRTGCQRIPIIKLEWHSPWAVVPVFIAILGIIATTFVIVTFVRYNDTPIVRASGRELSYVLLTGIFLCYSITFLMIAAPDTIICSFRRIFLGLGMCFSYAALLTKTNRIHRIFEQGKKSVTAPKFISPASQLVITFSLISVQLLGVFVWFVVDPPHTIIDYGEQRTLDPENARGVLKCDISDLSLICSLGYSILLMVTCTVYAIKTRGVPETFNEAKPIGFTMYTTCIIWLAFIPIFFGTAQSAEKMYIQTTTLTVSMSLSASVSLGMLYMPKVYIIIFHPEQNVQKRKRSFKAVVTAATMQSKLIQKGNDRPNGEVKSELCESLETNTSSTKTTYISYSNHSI
With `C=CCNC(=S)NNC(=O)COc1c(Cl)cc(Cl)cc1Cl`, the z-score is 0.71.

For `C/C=C/c1ccccc1OCc1ccc(C(=O)OC)o1`, the z-score was found to be 0.425.

`CCSc1ncc(/C=N/Nc2ccc(F)cc2)n1C` yielded a z-score of 0.0175. In turn, `CN(C=O)CP(=O)(O)CCN1CCCC1=O` had a z-score of -2.28. For the compound `COCCCNC(=O)/C(C#N)=C/c1ccc(OCC(=O)O)c(OC)c1`, the z-score was -0.149. With `Cc1cc(NS(=O)(=O)N(C)C)ccc1C(C)C`, the z-score was -0.428. In the case of `COc1ccc2c(-c3ccccc3)cc(=O)[nH]c2c1` it was -0.684; in that of `O=C(NCC(c1cccnc1)N1CCN(c2ccc(F)cc2)CC1)OCc1ccccc1` (stereo not drawn), -1.47. For `Cc1ccc(OCc2nn3c(-c4ccco4)nnc3s2)cc1`, the z-score was -1.14. In the case of `COc1ccc(S(=O)(=O)N(CCN2CCOCC2)Cc2cc(OC)ccc2OC)cc1` it was -0.389. On to `Cc1cc(NCCO)c2ccccc2n1`, for which the z-score turned out to be 0.274. Compound `CCOC(=O)CNC1CC(=O)N(c2cccc(Cl)c2)C1=O` (stereo not drawn) displayed a z-score of -0.279.

`NC(=O)c1c(NC(=O)CN2C(=O)CCC2=O)sc2c1CCCCC2` registered a z-score of 0.585. As for `CCOC(=O)N1CCN(CC(O)COc2ccc(C)cc2C(C)(C)C)CC1` (stereo not drawn), the figure is -0.0543; as for `CCCCC(=O)NC(=S)NNS(=O)(=O)c1ccccc1`, 0.0312. Compound `CCn1cc(CNC(=O)CCc2ccc(OC)cc2)cn1` returned a z-score of 0.0492. On to `O=C(NCc1n[nH]c(=S)n1-c1ccc(F)cc1)c1ccco1`, for which the z-score is -0.0102. The compound `Cc1nnc(OCc2nc3ccccc3n2C)c2ccccc12` gave a z-score of -0.493. Consider `O=C(COC(=O)CCc1c[nH]c(=O)[nH]1)Nc1ccccc1Cl`, for which the z-score was 0.146. In the case of `O=S1(=O)CCC(NS(=O)(=O)/C=C/c2ccccc2)C1` (stereo not drawn) it was -0.00689. As for `CNC(=S)N1N=C(c2ccc(Br)cc2)CC1c1ccc(OC)cc1` (stereo not drawn), the figure is -0.146; as for `CCn1c(-c2ccc(F)cc2)cnc1SCC(=O)N1CCc2ccccc21`, -0.138. In turn, `Cc1cnn(-c2cc(N/N=C/c3cccc(F)c3)ncn2)c1` showed a z-score of -0.225.

`COC(=O)c1sc(NC(=O)c2ccc(OC)cc2OC)nc1C` had a z-score of 0.414. As for `COc1ccccc1C(=O)Nc1cc2ccccc2oc1=O`, the z-score stood at 0.011.

The compound `CN(c1ccc(C(=O)NCCSC(C)(C)C)cc1)S(C)(=O)=O` came in with a z-score of -0.208. In the case of `CC(NC(=O)Cn1c(=O)[nH]c2ccsc2c1=O)C12CC3CC(CC(C3)C1)C2` (stereo not drawn) it was -1.91. Compound `COc1cc(OC)nc(NC(=O)CSc2nc3ccccc3[nH]2)n1` registered a z-score of 0.673.

The compound `COc1ccc(NC(=O)Cn2nnc(-c3ccccc3NC(=O)c3ccco3)n2)cc1` yielded a z-score of -0.441. `Cc1cc(C(=O)CSc2nnnn2C)c(C)n1CCc1ccc(F)cc1` displayed a z-score of -0.0216.

`CC(C)(C)c1ccc(C(=O)N2CCNCC2)cc1` registered a z-score of -1.41. The compound `Cc1ccc(CNC(=O)c2ccc(N3CCc4ccccc43)c([N+](=O)[O-])c2)cc1` yielded a z-score of 0.00045. As to `CC(C)NC(=O)c1ccc(-c2cc(C(F)(F)F)ccc2Cl)o1`, the z-score was -0.101.
